Assay results reported in PMC6212790.
The list shows a part of the results. At the low end of the ranking the order means little.

What follows are sequences tested against T1, GST-Rok-C97-191 (UniProt O34857) (assay: protein binding microarray). Conditions: Rok is a gene silencer of Bacillus subtilis; high values mean tight binding; most listed sequences are background and not binding sites; double strand, one strand shown.
T1 sequence: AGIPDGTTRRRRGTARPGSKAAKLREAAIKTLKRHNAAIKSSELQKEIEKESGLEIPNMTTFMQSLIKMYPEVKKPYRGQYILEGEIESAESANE
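Note: rank score from −0.5 (least bound) to 0.5 (best bound).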

Sequence | binding signal [E-score]
ACTTTTAG | 0.0335
GACAGGCC | -0.254
AATGACAC | -0.0543
CATTTTAC | 0.315
CCCATAAG | -0.179
GACCGGAA | -0.0227
AGGATCCT | -0.243
CTGCCAAC | -0.134
AGCTTCCA | -0.0838
ACGTAGTA | 0.188
GAACATAC | 0.075
TACGCGCA | -0.153
CAGGTATC | -0.0408
GGAATACA | 0.118
GATATCGA | 0.223
ACTACAAT | 0.329
AGACAGCC | -0.267
AAGATATC | 0.2
ATCGTCGG | -0.118
AATTTCAG | 0.153
AATAAGCC | 0.137
AATACTCG | 0.0344
ATCTCCCC | -0.124
AATTCAAG | 0.124
CACTGGAC | -0.168

Sequence | binding signal [E-score]
AAGACCTC | -0.317
ATGGTAAG | 0.0888
CGCTAACA | 0.105
CCTTCTCA | -0.22
TCACAACA | -0.0759
TATATAGA | 0.397
TCGTGTCA | -0.259
CCATACCC | -0.192
CATATTCA | -0.062
CACAAGGG | -0.237
CTTAACTA | 0.273
CCCAAAAC | -0.239
GGGCATCA | -0.0798
AAGGGTTG | -0.169
CCGATGCG | -0.235
AGATTCTA | 0.356
CGAGTCCG | -0.192
CCAAATAG | -0.0212
AGTAGCAT | 0.253
AACGATGT | -0.0901
GATCCTCC | -0.207
CGTACCGC | -0.237
GTGTGCGA | -0.272
ACAACGGC | -0.00269
CCCCTCCA | -0.402

Sequence | binding signal [E-score]
CACATCGA | 0.00946
AATTAACA | 0.0681
GCCTCCAA | -0.208
AACGTTTC | -0.125
CTGGTTCC | -0.123
GTCCCGGA | -0.258
AAGAGGGG | -0.374
CTGGCGTC | -0.23
GTAAGCAC | -0.139
GCGCTACC | -0.0494
AGTTCCTC | -0.174
CTTAACAA | 0.136
AAACTAGG | 0.285
CACACTTA | 0.161
AATTACCG | 0.297
AGGTCACG | -0.0477
ATGTCCCA | -0.162
AAATCGGG | -0.165
GCGGGGAA | -0.189
GAATTTGC | 0.0297
CCCAGGTC | -0.395
AGCCACTC | -0.0578
ACGACATG | 0.133
AAGGGACC | -0.203
AGGACAAC | 0.0901

Sequence | binding signal [E-score]
CATATGTC | 0.00539
CTCTGTGC | -0.248
ACAAGGCG | -0.233
AACGGTTG | 0.0504
GTCTTCCA | -0.213
ATACATTC | 0.27
CAAGTTGC | 0.0305
AATACGGA | 0.179
TAAGATTA | 0.199
GCTTCTTA | 0.0351
CGTGCCAA | -0.212
CCTACACG | -0.065
ACGCGGCA | -0.0324
CCTGAGGA | -0.246
GATTCACA | 0.101
GACACGAC | -0.0701
AAGTTTAG | 0.124
ACCGTGTC | -0.0441
GATCAGCC | -0.319
GTGATCAC | -0.0759
GCGTATAA | 0.244
AACGGTCA | -0.0986
CAGACTTA | -0.0657
ACGTTTCA | -0.124
GCAACGCA | -0.217

Sequence | binding signal [E-score]
GCCGCAAC | -0.128
AGAGGCCA | -0.228
CTTGTACC | -0.0277
AAACGAAA | -0.0606
AGTTATGG | 0.0628
CGTTGAAA | 0.0716
AGTACAGG | -0.0501
CAAAAATG | -0.0928
CTCCCACA | -0.00235
TCAAAGCA | 0.0132
CAGAACGG | 0.0535
CTGGGGAC | -0.271
CCCAGTAA | -0.0491
ACAGTTCT | 0.145
GCAATGGC | -0.228
ACGAAGCC | -0.172
CGGGAGAA | -0.00882
TCGGCGCA | -0.143
AATCAGGA | -0.335
ACCCATCC | -0.127
GTGTCTTA | -0.102
ACATTCCT | 0.0128
TGTCGGAA | -0.0923
AACGTGCC | -0.218
CTCCGGTC | 0.00767

Sequence | binding signal [E-score]
ACATTGCC | 0.0138
AGCAACGA | -0.024
AGCACTAT | 0.0129
ATCTGATA | 0.168
TACGGCAA | 0.15
AGCTACCG | 0.228
CAGAACAA | -0.108
CGTTTGCC | -0.177
AAGCCCCG | -0.183
CCATCTGC | -0.206
TTCCAAAA | -0.0673
ATTGCCGA | 0.107
GTGTAAAA | 0.223
ACTATTTC | 0.293
ACTCCAGC | 0.114
ACTACTTA | 0.415
GACGATTA | -0.159
AGGATGGC | -0.165
ATCTTAGA | -0.0736
ACACTTCG | -0.0858
CTGCGGAC | -0.132
ATATAGTA | 0.438
CTCCCGTA | -0.0792
GGGTGACC | -0.181
AAGCGACT | 0.00287

Sequence | binding signal [E-score]
ATTGACTA | 0.171
GCGAAGCC | -0.234
ATGGCCTG | -0.317
CAGAGGCG | -0.224
ATAGGGTA | 0.09
AACCTCTA | 0.0362
CGAAGTAC | 0.115
AGCGCCAG | -0.291
CCATGGAA | -0.0981
ATCTAAAA | 0.189
CAGAGAAA | -0.0819
CTGGATTC | -0.121
CCTTGTAC | 0.0856
TCCTTTAA | -0.194
ACCGGGAT | -0.116
ACGGAAAG | -0.117
AATTTTGG | 0.126
CCGCTGAG | -0.265
ATAGCTTG | 0.251
ACGACTAT | 0.155
TGTACCAA | 0.176
CCACTTCC | -0.248
